Laboratory results taken from the supplement of paper PMC8728848.
This is one part of the list.

Legend:
Assay in all cases: glycan array binding signal (z-score within array); higher = stronger binding
Details in all cases: glycan notation: IUPAC condensed, linker removed
[1] = molecular target: Neu5Ac(a2-3)Gal(b1-4)GlcNAc(b1-2)[Neu5Ac(a2-3)Gal(b1-4)GlcNAc(b1-4)]Man(a1-3)[GlcNAc(b1-4)][Neu5Ac(a2-3)Gal(b1-4)GlcNAc(b1-4)Man(a1-6)]Man(b1-4)GlcNAc(b1-4)GlcNAc
Method in brief: (§1)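 Glycan array data came from 3228 arrays in the Consortium for Functional Glycomics database, and only arrays with an available protein sequence were kept. Glycan names were put into IUPAC-condensed notation, and columns mapping to the same glycan were averaged. The binding signal is a within-array Z-score, averaged across arrays of one protein sequence run at different concentrations or buffers and across linkers. A negative Z-score can be read as non-binding.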

[2] = molecular target: Neu5Ac(a2-3)Gal(b1-4)GlcNAc(b1-2)[Neu5Ac(a2-3)Gal(b1-4)GlcNAc(b1-6)]Man(a1-6)[Neu5Ac(a2-3)Gal(b1-4)GlcNAc(b1-2)Man(a1-3)]Man(b1-4)GlcNAc(b1-4)GlcNAc
Method in brief: as §1

[3] = molecular target: Neu5Ac(a2-3)Gal(b1-4)GlcNAc(b1-2)[Neu5Ac(a2-3)Gal(b1-4)GlcNAc(b1-6)]Man(a1-6)[Neu5Ac(a2-3)Gal(b1-4)GlcNAc(b1-2)Man(a1-3)][GlcNAc(b1-4)]Man(b1-4)GlcNAc(b1-4)GlcNAc
Method in brief: as §1

[4] = molecular target: Neu5Ac(a2-3)Gal(b1-4)GlcNAc(b1-3)Gal
Method in brief: as §1

[5] = molecular target: Neu5Ac(a2-3)Gal(b1-4)GlcNAc(b1-3)Gal(b1-3)GlcNAc
Method in brief: as §1

[6] = molecular target: Neu5Ac(a2-3)Gal(b1-4)GlcNAc(b1-3)Gal(b1-4)GlcNAc
Method in brief: as §1

[7] = molecular target: Neu5Ac(a2-3)Gal(b1-4)GlcNAc(b1-3)Gal(b1-4)GlcNAc(b1-2)Man(a1-3)[Neu5Ac(a2-3)Gal(b1-4)GlcNAc(b1-3)Gal(b1-4)GlcNAc(b1-2)Man(a1-6)]Man(b1-4)GlcNAc(b1-4)GlcNAc
Method in brief: as §1

[8] = molecular target: Neu5Ac(a2-3)Gal(b1-4)GlcNAc(b1-3)Gal(b1-4)GlcNAc(b1-3)Gal(b1-4)GlcNAc
Method in brief: as §1

[9] = molecular target: Neu5Ac(a2-3)Gal(b1-4)GlcNAc(b1-3)Gal(b1-4)GlcNAc(b1-3)Gal(b1-4)GlcNAc(b1-2)Man(a1-3)[Neu5Ac(a2-3)Gal(b1-4)GlcNAc(b1-3)Gal(b1-4)GlcNAc(b1-3)Gal(b1-4)GlcNAc(b1-2)Man(a1-6)]GalNAc
Method in brief: as §1

[10] = molecular target: Neu5Ac(a2-3)Gal(b1-4)GlcNAc(b1-3)Gal(b1-4)GlcNAc(b1-3)GalNAc
Method in brief: as §1

[11] = molecular target: Neu5Ac(a2-3)Gal(b1-4)GlcNAc(b1-3)Gal(b1-4)GlcNAc(b1-3)[Neu5Ac(a2-3)Gal(b1-4)GlcNAc(b1-3)Gal(b1-4)GlcNAc(b1-6)]GalNAc
Method in brief: as §1

[12] = molecular target: Neu5Ac(a2-3)Gal(b1-4)GlcNAc(b1-3)Gal(b1-4)GlcNAc(b1-6)[Gal(b1-3)]GalNAc
Method in brief: as §1

[13] = molecular target: Neu5Ac(a2-3)Gal(b1-4)GlcNAc(b1-3)Gal(b1-4)[Fuc(a1-3)]GlcNAc
Method in brief: as §1

[14] = molecular target: Neu5Ac(a2-3)Gal(b1-4)GlcNAc(b1-3)GalNAc
Method in brief: as §1

[15] = molecular target: Neu5Ac(a2-3)Gal(b1-4)GlcNAc(b1-3)[Neu5Ac(a2-3)Gal(b1-4)GlcNAc(b1-6)]GalNAc
Method in brief: as §1

[16] = molecular target: Neu5Ac(a2-3)Gal(b1-4)GlcNAc(b1-6)GalNAc
Method in brief: as §1

[17] = molecular target: Neu5Ac(a2-3)Gal(b1-4)GlcNAc(b1-6)[Gal(b1-3)]GalNAc
Method in brief: as §1

[18] = molecular target: Neu5Ac(a2-3)Gal(b1-4)GlcNAc(b1-6)[Neu5Ac(a2-3)Gal(b1-3)]GalNAc
Method in brief: as §1

[19] = molecular target: Neu5Ac(a2-3)Gal(b1-4)GlcNAc6S
Method in brief: as §1

[20] = molecular target: Neu5Ac(a2-3)Gal(b1-4)[Fuc(a1-3)]GlcNAc
Method in brief: as §1

[21] = molecular target: Neu5Ac(a2-3)Gal(b1-4)[Fuc(a1-3)]GlcNAc(b1-2)Man
Method in brief: as §1

[22] = molecular target: Neu5Ac(a2-3)Gal(b1-4)[Fuc(a1-3)]GlcNAc(b1-3)Gal
Method in brief: as §1

[23] = molecular target: Neu5Ac(a2-3)Gal(b1-4)[Fuc(a1-3)]GlcNAc(b1-3)Gal(b1-4)GlcNAc
Method in brief: as §1

[24] = molecular target: Neu5Ac(a2-3)Gal(b1-4)[Fuc(a1-3)]GlcNAc(b1-3)Gal(b1-4)[Fuc(a1-3)]GlcNAc(b1-3)Gal(b1-4)[Fuc(a1-3)]GlcNAc
Method in brief: as §1

[25] = molecular target: Neu5Ac(a2-3)Gal(b1-4)[Fuc(a1-3)]GlcNAc(b1-3)GalNAc
Method in brief: as §1

[26] = molecular target: Neu5Ac(a2-3)Gal(b1-4)[Fuc(a1-3)]GlcNAc(b1-6)[Gal(b1-3)]GalNAc
Method in brief: as §1

[27] = molecular target: Neu5Ac(a2-3)Gal(b1-4)[Fuc(a1-3)]GlcNAc(b1-6)[Neu5Ac(a2-3)Gal(b1-3)]GalNAc
Method in brief: as §1

[28] = molecular target: Neu5Ac(a2-3)Gal(b1-4)[Fuc(a1-3)]GlcNAc6S
Method in brief: as §1

[29] = molecular target: Neu5Ac(a2-3)Gal6S(b1-4)GlcNAc
Method in brief: as §1

[30] = molecular target: Neu5Ac(a2-3)Gal6S(b1-4)[Fuc(a1-3)]GlcNAc
Method in brief: as §1

Neu5Ac(a2-3)GalNAc = molecular target: Neu5Ac(a2-3)GalNAc
Method in brief: as §1

[31] = molecular target: Neu5Ac(a2-3)GalNAc(b1-4)GlcNAc
Method in brief: as §1

[32] = molecular target: Neu5Ac(a2-3)[GalNAc(b1-4)]Gal(b1-4)Glc
Method in brief: as §1

[33] = molecular target: Neu5Ac(a2-3)[GalNAc(b1-4)]Gal(b1-4)GlcNAc
Method in brief: as §1

[34] = molecular target: Neu5Ac(a2-3)[GalNAc(b1-4)]Gal(b1-4)GlcNAc(b1-3)GalNAc
Method in brief: as §1

[35] = molecular target: Neu5Ac(a2-3)[Neu5Ac(a2-6)]GalNAc
Method in brief: as §1

Neu5Ac(a2-6)Gal = molecular target: Neu5Ac(a2-6)Gal
Method in brief: as §1

[36] = molecular target: Neu5Ac(a2-6)Gal(b1-3)GlcNAc(b1-3)[Gal(b1-4)GlcNAc(b1-6)]Gal(b1-4)Glc
Method in brief: as §1

Neu5Ac(a2-6)Gal(b1-4)Glc = molecular target: Neu5Ac(a2-6)Gal(b1-4)Glc
Method in brief: as §1

[37] = molecular target: Neu5Ac(a2-6)Gal(b1-4)GlcNAc
Method in brief: as §1

[38] = molecular target: Neu5Ac(a2-6)Gal(b1-4)GlcNAc(b1-2)Man
Method in brief: as §1

[39] = molecular target: Neu5Ac(a2-6)Gal(b1-4)GlcNAc(b1-2)Man(a1-3)Man(b1-4)GlcNAc(b1-4)GlcNAc
Method in brief: as §1

[40] = molecular target: Neu5Ac(a2-6)Gal(b1-4)GlcNAc(b1-2)Man(a1-3)[Gal(b1-4)GlcNAc(b1-2)Man(a1-6)]Man(b1-4)GlcNAc(b1-4)GlcNAc
Method in brief: as §1

[41] = molecular target: Neu5Ac(a2-6)Gal(b1-4)GlcNAc(b1-2)Man(a1-3)[GlcNAc(b1-2)Man(a1-6)]Man(b1-4)GlcNAc(b1-4)GlcNAc
Method in brief: as §1

[42] = molecular target: Neu5Ac(a2-6)Gal(b1-4)GlcNAc(b1-2)Man(a1-3)[GlcNAc(b1-4)][Neu5Ac(a2-6)Gal(b1-4)GlcNAc(b1-2)Man(a1-6)]Man(b1-4)GlcNAc(b1-4)GlcNAc
Method in brief: as §1

B1: EULS2 M4 (Oryza sativa) (protein)
chain: MVYCRANPNYAMTARNGAVVLAPANPKDEYQHWIKDMRWSTSIKDEEGYPAFALVNKATGQAIKHSLGQSHPVRLVPYNPEVMDESVLWTESRDVGNGFRCIRMVNNIYLNFDAFHGDKYHGGVRDGTDIVLWKWCEGDSLRWKIQPYYILEQKLISEEDLNSAVDHHHHHH
[1]
  glycan array binding signal (z-score): -0.603
[2]
  glycan array binding signal (z-score): 1.08
[3]
  glycan array binding signal (z-score): -0.585
[4]
  glycan array binding signal (z-score): -0.404
[5]
  glycan array binding signal (z-score): -0.471
[6]
  glycan array binding signal (z-score): 0.402
[7]
  glycan array binding signal (z-score): 0.289
[8]
  glycan array binding signal (z-score): -0.561
[9]
  glycan array binding signal (z-score): 1.02
[10]
  glycan array binding signal (z-score): -0.346
[11]
  glycan array binding signal (z-score): -0.381
[12]
  glycan array binding signal (z-score): -0.233
[13]
  glycan array binding signal (z-score): -0.593
[14]
  glycan array binding signal (z-score): -0.508
[15]
  glycan array binding signal (z-score): -0.544
[16]
  glycan array binding signal (z-score): -0.226
[17]
  glycan array binding signal (z-score): -1.27
[18]
  glycan array binding signal (z-score): -0.589
[19]
  glycan array binding signal (z-score): 4.39
[20]
  glycan array binding signal (z-score): -0.045
[21]
  glycan array binding signal (z-score): 0.213
[22]
  glycan array binding signal (z-score): -0.345
[23]
  glycan array binding signal (z-score): 0.35
[24]
  glycan array binding signal (z-score): 0.985
[25]
  glycan array binding signal (z-score): -0.591
[26]
  glycan array binding signal (z-score): -0.235
[27]
  glycan array binding signal (z-score): -0.441
[28]
  glycan array binding signal (z-score): -0.364
[29]
  glycan array binding signal (z-score): 0.205
[30]
  glycan array binding signal (z-score): -0.15
Neu5Ac(a2-3)GalNAc
  glycan array binding signal (z-score): 0.083
[31]
  glycan array binding signal (z-score): 0.042
[32]
  glycan array binding signal (z-score): -0.438
[33]
  glycan array binding signal (z-score): -0.57
[34]
  glycan array binding signal (z-score): -0.408
[35]
  glycan array binding signal (z-score): -0.347
Neu5Ac(a2-6)Gal
  glycan array binding signal (z-score): 0.435
[36]
  glycan array binding signal (z-score): -0.674
Neu5Ac(a2-6)Gal(b1-4)Glc
  glycan array binding signal (z-score): -0.926
[37]
  glycan array binding signal (z-score): 0.006
[38]
  glycan array binding signal (z-score): -0.431
[39]
  glycan array binding signal (z-score): -0.572
[40]
  glycan array binding signal (z-score): -0.477
[41]
  glycan array binding signal (z-score): -0.497
[42]
  glycan array binding signal (z-score): -0.167
